Screen size: about 310,000 compounds; about 14,000 (4.5%) showed an effect of 50% or more. Effects have a minus sign here. This is one part of the list.
target: human ether-à-go-go-related gene (hERG) potassium channel (human, UniProt Q12809); experiment: primary screen, population patch clamp on CHO cells stably expressing hERG
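Further: peak tail current of the secondary pulse compared with the same well before compound.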

Chain of human ether-à-go-go-related gene (hERG) potassium channel (Q12809 whole entry, looked up): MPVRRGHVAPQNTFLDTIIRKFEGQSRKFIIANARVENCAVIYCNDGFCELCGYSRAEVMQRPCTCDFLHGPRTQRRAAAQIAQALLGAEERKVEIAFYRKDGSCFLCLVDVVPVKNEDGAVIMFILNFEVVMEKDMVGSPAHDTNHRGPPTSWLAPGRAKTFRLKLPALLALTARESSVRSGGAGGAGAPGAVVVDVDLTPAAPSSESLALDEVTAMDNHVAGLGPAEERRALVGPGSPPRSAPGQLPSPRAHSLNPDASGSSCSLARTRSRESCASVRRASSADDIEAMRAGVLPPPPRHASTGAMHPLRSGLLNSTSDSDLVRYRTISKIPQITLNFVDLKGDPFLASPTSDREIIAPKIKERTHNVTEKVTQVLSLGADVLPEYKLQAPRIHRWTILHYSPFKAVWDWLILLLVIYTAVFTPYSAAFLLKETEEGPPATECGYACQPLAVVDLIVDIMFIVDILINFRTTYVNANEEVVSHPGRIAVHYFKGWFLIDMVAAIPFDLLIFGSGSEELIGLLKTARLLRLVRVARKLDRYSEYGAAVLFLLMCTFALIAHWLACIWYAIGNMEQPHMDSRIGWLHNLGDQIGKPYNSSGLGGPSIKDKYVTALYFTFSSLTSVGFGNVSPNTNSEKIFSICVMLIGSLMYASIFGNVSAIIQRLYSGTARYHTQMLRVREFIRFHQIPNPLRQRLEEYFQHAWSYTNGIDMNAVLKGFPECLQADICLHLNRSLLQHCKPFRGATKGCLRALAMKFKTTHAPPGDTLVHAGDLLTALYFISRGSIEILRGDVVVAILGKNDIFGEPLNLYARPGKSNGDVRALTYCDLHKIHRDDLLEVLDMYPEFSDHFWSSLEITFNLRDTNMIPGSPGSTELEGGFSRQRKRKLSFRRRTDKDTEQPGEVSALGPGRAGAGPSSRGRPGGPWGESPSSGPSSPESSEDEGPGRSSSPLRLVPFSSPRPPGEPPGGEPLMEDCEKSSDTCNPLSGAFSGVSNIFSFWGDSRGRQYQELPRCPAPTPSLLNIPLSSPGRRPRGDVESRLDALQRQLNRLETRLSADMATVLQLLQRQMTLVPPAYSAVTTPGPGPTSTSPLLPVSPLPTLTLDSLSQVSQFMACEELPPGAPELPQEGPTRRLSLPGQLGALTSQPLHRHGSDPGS

SMILES | hERG current change (%, negative = inhibition) at 10uM [%]
CC(=O)Nc1cn(-c2ccccc2)nc1-c1ccccc1 | -19.3
O=C(Nc1nc2cc(Cl)ccc2s1)C1CCCN(S(=O)(=O)c2cccc3cccnc23)C1 (centres unmarked) | -0.0598
CC(C)(C)n1nc2c(c1NC(=O)Cc1ccc(Cl)cc1)CS(=O)(=O)C2 | -0.182
Cn1c(SCC(=O)NC2CC2)nnc1-c1cccs1 | -24.6
CCCOC(=O)c1ccc(NC(=O)COC)cc1 | 1.07
N/C(=N\N=C\c1cccs1)SC1CC(=O)N(c2ccc(Br)cc2)C1=O (centres unmarked) | 15.3
CCN(CC)S(=O)(=O)c1cccc(C(=O)Nc2ccccc2C(=O)N2CCOCC2)c1 | 1.21
CC(C)(C)c1ccc(/C=C/C(=O)NC2=NCCS2)cc1 | 10.5
CCOc1ccc2nc(NC(=O)CN3CCOCC3)sc2c1 | -34.5
CN(C)S(=O)(=O)c1ccc(C(=O)NNC(=O)c2ccccc2-n2cccc2)cc1 | -27.1
CCOc1ccc(-c2nc(CSCC(=O)NCCCN3CCCC3=O)c(C)o2)cc1 | 16.8
O=C(c1cccc(S(=O)(=O)N2CCOCC2)c1)N1CCCC1 | -5.77
CCCC(=O)Nc1nc(C)c(-c2csc(Nc3ccc(Cl)cc3)n2)s1 | 9.73
COc1ccc(OC)c(NC(=O)Cn2cc(C#N)c3cc(Br)ccc32)c1 | 7.75
COc1ccc(/C=C2\SC(c3ccc(C)cc3)=NC2=O)cc1OC | 14.2
COC(=O)c1cnc2c(c1C(=O)OC)c(=O)n(C)c(=O)n2C | -5.08
CCN1CCN(c2ccc(NC(=O)c3ccc4c(c3)OCO4)cc2)CC1 | -54.5
Cc1cc2oc(C(=O)Nc3ccc(S(=O)(=O)Nc4ncccn4)cc3)c(C)c2cc1Cl | 17.5
COc1ccc(/C=N/n2c(C)nc3c([nH]c4ccccc43)c2=O)cc1CN1CCCC(C)(C)C1 | -38.1
O=C(O)c1cc(-c2ccc(N3CCOCC3)cc2)nn1-c1ccccc1Cl | 27.7
O=C1CCCN2N=C(SCC(=O)Nc3ccccc3C(F)(F)F)SC2=N1 | 7.76
O=C(c1ccc(F)cc1)N(Cc1ccco1)C1CCS(=O)(=O)C1 (centres unmarked) | 23.2

SMILES | hERG current change (%, negative = inhibition) at 10uM [%]
Cc1ccc(S(=O)(=O)N2CCOCC2)cc1C(=O)N1CCN(S(=O)(=O)c2cccs2)CC1 | -16.3
CC(C)(C)C(=O)Nc1ccc2c(c1)OCCOCCOc1cc(NC(=O)C(C)(C)C)ccc1OCCOCCO2 | -65.5
CCOc1ccccc1NC(=O)C(=O)NCC1CCCN1CC (centres unmarked) | -39.1
Cn1c(/C(C#N)=C(\O)c2ccc([N+](=O)[O-])s2)nc2ccccc21 | 27.7
CC[C@H]1CC2CN3CCc4c([nH]c5c([C@H]6C[C@H]7[C@H](CC)CN(C)[C@@H](Cc8c6[nH]c6ccccc86)[C@H]7C(=O)OC)c(OC)ccc45)C(C(=O)OC)(C2)C13 | -7.1
Cc1nn(CC(=O)N/N=C/c2ccc(F)cc2)c(C)c1[N+](=O)[O-] | -9.59
O=C(COC(=O)C1=COCCO1)Nc1ccc(F)c(F)c1 | -1.21
CCC(=O)N1CCN(c2c(Cl)cccc2[N+](=O)[O-])CC1 | -13.5
COc1ccc(C)cc1NC(=O)NC(C)c1ccc2c(c1)OCO2 (centres unmarked) | 7.35
CCc1ccc(NC(=O)[C@H](C)NC(=O)C2CCN(C(=O)[C@@H](N)Cc3ccccc3)CC2)cc1 | 3.97
Cc1ccc(/C=C/C(=O)N2CCCN(C(=O)/C=C/c3ccc(C)cc3)CC2)cc1 | -74.8
O=C(COc1ccc(S(=O)(=O)Nc2ccccc2)cc1)NCc1ccccn1 | -2.45
NS(=O)(=O)c1c(Sc2ccccc2C(=O)O)ccc2ccccc12 | 28.4
CC(=O)C1=C(C)N(Cc2ccccc2)C(=O)N[C@@H]1c1cccc(C(F)(F)F)c1 | 2.66
COc1ccc(NC(=O)/C(=C\c2ccccc2)NC(=O)c2ccco2)cc1 | 0.0276
S=c1[nH]nc(-c2cc3ccccc3o2)n1Cc1ccccc1 | 11.4
O=C(O)C1=C[C@H](c2ccc(C(F)(F)F)cc2)C[C@H](OCc2ccc(CO)cc2)O1 | 21.5
CC(=O)NC(C)c1nc2ccccc2n1C(C)C (centres unmarked) | -10.2
O=C(NCc1ccccn1)c1ccc([N+](=O)[O-])cc1 | -29.1
COc1ccc(S(=O)(=O)NCCOc2ccccc2)cc1C | -3.36
COc1ccc(NC(=O)CCN2CCCCCC2)c(OC)c1.Cl | 0.735
CCCNC(=O)c1nn2c(C(F)(F)F)cc(-c3ccccc3)nc2c1Br | 15.9

Reference: article PMC4336329 (PLoS ONE, 2015)
